Screen size: about 420,000 compounds; about 50,000 (12%) were called active. Inconclusive means that the source gave no clear call. Such entries were picked first, then a sample of the others. Calls come from the whole dose curve; as a rule, active = well fitted inhibition curve with a large enough effect; inconclusive = small, poorly fitted or top-dose-only effect; inactive = flat fitted curve, though single readings scatter. Potencies of inconclusive entries are left out as doubtful fits.
Assay: qHTS for Inhibitors of human tyrosyl-DNA phosphodiesterase 1 (TDP1): qHTS in cells in presence of CPT; note: nearly all actives have a fitted effect of over 55% in size
Settings: chicken DT40 Tdp1-/-;hTDP1 cells + 20 nM CPT, ATP luminescence, 48 h; activity change, negative = growth inhibition: at 46.2 µM (top of the series) unless noted
In short: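 Chicken DT40 Tdp1-/- cells stably complemented with human TDP1 were seeded at 400 cells/well in medium containing 20 nM camptothecin, exposed to pin-transferred compounds, and grown at 37 °C for at least 48 hr. Viability was read as ATP luminescence.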
With Cn1c(=O)c2c(SCC(=O)N3CCCC3)nc(CC(C)(C)C)nc2n(C)c1=O the Potency was inconclusive [inhibitor, single point]. With O=C(c1ccc(Br)c(S(=O)(=O)N2CCOCC2)c1)N1CCN(C/C=C/c2ccccc2)CC1 the Potency was inconclusive [inhibitor, single point]. With O=S(=O)(c1ccc(-c2cnc(C3CC3)o2)cc1)N1CCN(c2ccccc2)CC1 the Potency was inconclusive [inhibitor, single point]. With C=CCn1c(-c2ccoc2)n[nH]c1=S the Potency was “inactive”. For COc1cccc(NC(=O)Cn2c(=O)n(-c3ccccc3)c(=O)c3c2c2cc(OC)ccc2n3C)c1, the Potency was “inactive”. With CC1CCCN(c2ncnc3c2cnn3-c2ccc(Cl)cc2)C1 (stereo not given) the Potency was “inactive”. In the case of CCOc1ccc(N(CC(=O)NCCc2ccc(Cl)cc2)S(=O)(=O)c2c(C)[nH]c(=O)[nH]c2=O)cc1, the Potency is reported as “inactive”. With CCCOc1ccc(C(=O)NCC(c2cccs2)N(C)C)cc1OC (stereo not given) the activity change, negative = growth inhibition was inconclusive: -10.9% [inhibitor]. In the case of Cc1cnc(C(=O)OCC(=O)c2ccc(F)cc2)cn1, the Potency is reported as “inactive”. In the case of CC(=O)N(C)c1ccc(NC(=S)Nc2cccc3ccccc23)cc1, the Potency is reported as active: 23.1 µM. In the case of C=CCOC(=O)C1=C[C@H](c2cn(C(C)=O)c3ccccc23)C[C@H](OCc2ccc(CO)cc2)O1, the Potency is reported as inconclusive [inhibitor, single point]. For Cc1ccc(OCC(=O)Nc2cccc(C(=O)OCc3cc(=O)n4c(C)csc4n3)c2)cc1, the Potency was inconclusive [inhibitor, single point]. In the case of COCCn1c(=O)cnc2cnc(Nc3ccccc3)nc21, the Potency is reported as active: 9.2 µM. With CCc1cccc(NC(=O)c2ccc3c(c2)c(C)c(C)n3Cc2ccc(F)cc2)c1 the Potency was active: 14.6 µM. With COC(=O)[C@@]1(Cc2ccc(F)cc2)[C@H]2c3cc(C(=O)N4CCCC4)n(Cc4ccc(C)c(F)c4F)c3C[C@H]2CN1C(=O)c1ccccc1 the Potency was inconclusive [inhibitor, single point]. For CCOc1ccccc1NC(=O)c1c(NC(=O)Cc2ccc(OC)cc2)sc2c1CCC2, the Potency was active: 8.2 µM. For Cc1nc(N)[nH]c(=O)c1CCCNc1ccc(CCCCC2(CCl)OCCO2)cc1, the Potency was active: 18.4 µM. In the case of COc1ccccc1N1CCN(C2CCCN(C(=O)CCC(C)=O)C2)CC1 (stereo not given), the Potency is reported as “inactive”. With Cc1ccccc1NC1=C(Cl)C(=O)OC1OC(=O)c1ccco1 (stereo not given) the Potency was active: 25.9 µM. In the case of CCOC(=O)N1CCN(S(=O)(=O)c2ccc(OCC)c(C)c2)CC1, the Potency is reported as inconclusive [inhibitor, single point]. For CC(C)COC(=O)N1CCCCC1c1cc(C(=O)NCc2ccccc2)no1 (stereo not given), the Potency was active: 18.4 µM. For Cc1ccccc1NC(=O)COc1ccc(S(=O)(=O)N2CCCC2)cc1C, the Potency was “inactive”. In the case of c1cncc(-c2nc(NCCCN3CCOCC3)c3c4c(sc3n2)CCC4)c1, the Potency is reported as inconclusive [inhibitor, single point]. With Cc1ccc(CNC(=O)CN2N=C(c3ccccc3)CCC2=O)cc1 the Potency was “inactive”. In the case of CC(=O)c1ccc(N2CCN(c3ncnc4c3cnn4-c3cc(Cl)ccc3C)CC2)cc1, the Potency is reported as active: 2.59 µM. For Cc1ccc(C(C)C)c(OCC(=O)c2c(O)c3ccccc3oc2=O)c1, the Potency was inconclusive [inhibitor, single point]. For COc1ccccc1N1CCN(CC(=O)N2N=CCC2c2ccccc2)CC1 (stereo not given), the Potency was inconclusive [inhibitor, single point]. In the case of CCCN1Cc2cccc(C(=O)NCc3ccc(C)cc3)c2C1=O, the Potency is reported as inconclusive [inhibitor, full curve, poor fit]. In the case of NCCCNCCCCNC(=O)C(O)NC(=O)CCCCCCN=C(N)N (stereo not given), the Potency is reported as active: 1.19 µM. With COc1ccccc1CNC(=O)c1nnn(CC(=O)Nc2c(C)cccc2C)c1N the Potency was “inactive”. In the case of COc1ccccc1N1CCN(C(=O)CSc2ccc3c(C)cc(C)nc3n2)CC1, the Potency is reported as inconclusive [inhibitor, single point]. With Cc1ccccc1OCC(=O)OCc1cc(=O)n2nc(-c3cccs3)sc2n1 the Potency was inconclusive [inhibitor, single point]. In the case of CCOc1ccc(NC(=O)N2CCC(N3CCCCC3)CC2)cc1, the Potency is reported as “inactive”. With COc1cccc(Nc2nc(-c3sc(NC(=O)CC(C)C)nc3C)cs2)c1 the Potency was active: 13 µM. In the case of Cc1cc(C)cc(C(=O)NCCn2cc(SCC(=O)N3CCOCC3)c3ccccc32)c1, the Potency is reported as inconclusive [inhibitor, single point]. With Cc1nc2c(ccc3nc(NC(=O)C(c4ccccc4)c4ccccc4)sc32)s1 the Potency was active: 7.31 µM. For CC1CC(c2ccccc2)n2nc(NC(=O)c3ccco3)nc2N1 (stereo not given), the Potency was “inactive”. With O=C(Nc1cc(Cl)cc(Cl)c1)c1ccc(F)c(S(=O)(=O)N2CCN(c3ccccc3F)CC2)c1 the Potency was active: 5.8 µM. In the case of Cc1cc(NC(=O)C2CCCN(S(=O)(=O)c3cccc4nsnc34)C2)ccc1Br (stereo not given), the Potency is reported as active: 10.3 µM. In the case of Cn1cccc1C(=O)Nc1nc(-c2ccccn2)cs1, the Potency is reported as active: 2.59 µM. For O=C(c1ccc2c(c1)N(Cc1ccc(Cl)cc1)C(=O)c1ccccc1S2(=O)=O)N1CCN(c2ccccn2)CC1, the Potency was active: 16.4 µM. In the case of CC(C)(C)OC(=O)N1CCC(CNC(=O)c2ccc(F)cc2)CC1, the Potency is reported as “inactive”. In the case of COc1ccc(CCN2CCCC(CN(C)Cc3cc(Cl)c(O)c(OC)c3)C2)cc1 (stereo not given), the Potency is reported as “inactive”. In the case of CC12CCC(C(=O)NNC(=O)c3ccccc3)(OC1=O)C2(C)C (stereo not given), the Potency is reported as “inactive”. In the case of O=C(N/N=C/c1ccccc1)C(=O)N/N=C/c1ccccc1, the Potency is reported as “inactive”. With Cc1ccc(-c2nnc(SCC(=O)Nc3ccc(S(=O)(=O)N4CCCCCC4)cc3)o2)cc1 the Potency was inconclusive [inhibitor, single point]. For Cc1ccc(C(C)NC(=O)c2ccc3c(c2)OCCO3)cc1C (stereo not given), the Potency was inconclusive [inhibitor, single point]. In the case of CSc1nc2nc3c(c(=O)n2[nH]1)CN(Cc1ccccc1)CC3, the Potency is reported as active: 25.9 µM. In the case of Cc1nc(N2CCC(C)CC2)c2c(C)c(C(=O)Nc3ccc(C(F)(F)F)cc3)sc2n1, the Potency is reported as inconclusive [inhibitor, single point]. For COc1ccc(CCNC(=O)C(=O)NCC2OCCN2S(=O)(=O)c2ccc(C)cc2)cc1OC (stereo not given), the Potency was inconclusive [inhibitor, single point]. With COc1cccc(NC(=S)N2CCN(C(c3ccccc3)c3ccccc3)CC2)c1 the Potency was “inactive”. For COc1ccc(NC(=O)c2cc(-c3cc(F)ccc3OC(C)C)n[nH]2)c(C)c1, the Potency was inconclusive [inhibitor, single point]. With CON(C)C(=O)CCN(C(=O)OC(C)(C)C)c1ccccc1 the Potency was “inactive”. In the case of COC(=O)c1sccc1-c1ccc(C(=O)Nc2ccccc2)o1, the Potency is reported as inconclusive [inhibitor, single point]. For O=C(CNc1ccc(Br)cc1)c1ccccc1, the Potency was inconclusive [inhibitor, full curve]. For CCOC(=O)c1ccccc1NC(=O)CSc1nc2ccccc2c(=O)n1CCCN1CCOCC1, the Potency was inconclusive [inhibitor, partial curve, poor fit]. For N#Cc1ccc(-c2ccc(OCC3CNC(=O)O3)cc2)cc1 (stereo not given), the Potency was active: 8.2 µM. In the case of N#Cc1ccc(C23OCCN2CCn2nc4ccccc4c23)cc1 (stereo not given), the Potency is reported as inconclusive [inhibitor, single point]. In the case of Cc1cc([N+](=O)[O-])ccc1NC(=O)/C=C/c1cccs1, the Potency is reported as “inactive”. In the case of CC(C)=C1SC(N2CCN(c3cccc(Cl)c3)CC2)=NC1=O, the Potency is reported as inconclusive [inhibitor, single point]. For COc1ccc(-c2noc(CCC(=O)N3CCN(c4ccccc4C)CC3)n2)cc1, the Potency was inconclusive [inhibitor, single point]. With Cc1ccc(NC(=O)C(=O)NCC2(c3ccccc3)CCCC2)cc1C the Potency was inconclusive [inhibitor, full curve]. In the case of CC1(C)Oc2ccc(C(=O)NNC(=O)Nc3ccccc3)cc2NC1=O, the Potency is reported as “inactive”. In the case of C/C=C/c1ccc(OCCOc2ccc(C=O)cc2)c(OC)c1, the activity change, negative = growth inhibition is reported as inconclusive: -31% [inhibitor]. With CSC1=N/C(=C\c2cccc(Cl)c2)C(=O)N1N(C)C the Potency was inconclusive [inhibitor, single point]. For CCc1nc2c(OCCOC)cccn2c1N(C)C(=O)c1ccco1, the Potency was “inactive”. For COc1ccc(S(=O)(=O)NCc2ccc(C(=O)N3CCN(Cc4ccccc4)CC3)cc2)cc1, the Potency was inconclusive [inhibitor, partial curve]. In the case of Cc1ccc(NS(=O)(=O)c2cccc(C(=O)N3CCN(C(=O)c4ccco4)CC3)c2)cc1, the Potency is reported as “inactive”. With CCOc1nc(C#N)nc(N2CCOCC2)n1 the Potency was inconclusive [inhibitor, single point]. For Cc1ccc(S(=O)(=O)N2CCN(c3nc(CN4CCCC4)nc4sc(C)c(C)c34)CC2)cc1, the Potency was inconclusive [inhibitor, single point]. In the case of CC(O)c1c(OCc2ccccc2)ncnc1OCc1ccccc1 (stereo not given), the Potency is reported as inconclusive [inhibitor, single point]. In the case of COc1ccccc1N1CCN(C(=O)c2cc(C)oc2C)CC1, the Potency is reported as “inactive”. With COc1cccc(-c2cncnc2NCc2cnc(C)cn2)c1 the Potency was active: 4.61 µM. For N#Cc1c(NC(=S)NC(=O)C2CCCC2)sc2c1CCCCC2, the Potency was inconclusive [inhibitor, single point]. In the case of CCCCn1ccnc1C(=O)c1cc(S(=O)(=O)N2CCOCC2)ccc1C, the Potency is reported as active: 11.6 µM.
% is set by controls: 0 for no effect and ±100 for the full control effect; potency is the fitted concentration of half-maximal effect; tags give direction and shape of the fitted curve.
